# Results published in PubChem BioAssay AID686978 (National Center for Advancing Translational Sciences (NCATS), 2013).
# Values joined by “and” are separate entries in the source; they are usually repeats but may differ in a detail not shown here. Equal entries are not always repeated. Screen size: about 420,000 compounds; about 64,000 (15%) were called active. The inconclusive results got no clear call from the source; some entries with a clear call stand among them for comparison. The call rests on the fitted dose curve; in most records, active means well fitted inhibition curve with a large enough effect; inconclusive means small, poorly fitted or top-dose-only effect; inactive means flat fitted curve, though single readings scatter. Where the call is inconclusive, the potency comes from a doubtful curve fit.
# Assay: qHTS for Inhibitors of human tyrosyl-DNA phosphodiesterase 1 (TDP1): qHTS in cells in absence of CPT; further: nearly all actives have a fitted effect of over 55% in size
# Conditions: DT40 Tdp1-/- hTDP1 cells, no CPT, ATP luminescence, 48 h; activity change, negative = growth inhibition: at 46.2 µM (top of the series) unless noted
# Procedure, shortened: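 Chicken DT40 Tdp1-/- cells stably complemented with human TDP1 were seeded at 400 cells/well with DMSO in place of 20 nM camptothecin. After compound pinning, cells grew at least 48 hr at 37 °C; viability read by CellTiter-Glo luminescence.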
# On the % scale 0 is the no-effect control and ±100 the full control effect; potency means the concentration at half of the fitted maximal effect; tags describe the fitted curve by direction and shape.
SMILES,"activity change, negative = growth inhibition",Potency
COC(=O)C(C)Sc1ccc2nnc(-c3ccccc3)n2n1 (configuration not stated),inactive: -28.4%,–
Cc1nc([N+](=O)[O-])c(Br)n1Cc1ccccc1,–,active: 6.51 µM
Cc1cscc1NC(=O)/C=C/C(=O)O,inactive: -6.44%,–
CCc1ccccc1NC(=O)c1cc2nc(-c3ccc(Br)cc3)cc(C(F)(F)F)n2n1,–,"inconclusive: 20.6 µM [inhibitor, single point]"
COc1cccc(C(C)(O)c2nc(-c3ccc(F)c(Cl)c3)cs2)c1 (configuration not stated),–,"inconclusive: 25.9 µM [inhibitor, single point]"
CC(C)c1nc2ccc(C(=O)NCc3ccccc3Br)cc2o1,–,active: 16.4 µM
COC(=O)[C@H]1C(OC)[C@@H](OC(=O)c2cc(OC)c(OC)c(OC)c2)C[C@@H]2CN3CCc4c([nH]c5cc(OC)ccc45)[C@H]3C[C@H]21 (some centres not stated),–,"inconclusive: 20.6 µM [inhibitor, single point]"
COc1ccccc1C1NC(c2ccc3c(c2)OCO3)=CC(c2cc(Cl)ccc2O)N1 (configuration not stated),–,active: 3.98 µM
CCc1ccc(C(=O)CC2(O)C(=O)N(Cc3ccc(C)cc3)c3ccccc32)cc1 (configuration not stated),–,active: 2.59 µM
O=C(N1CCN(c2cccc(Cl)c2)CC1)C1(c2cccs2)CCOCC1,–,active: 20.6 µM
O=C(Cn1nc(Cc2cccnc2)c2ccccc2c1=O)Nc1cccnc1Cl,inactive: 0.788%,–
NS(=O)(=O)c1ccc(NC(=O)NC2CCCCC2)cc1,inactive: -3.52%,–
O=C(NCC1CCN(Cc2cccc(Cl)c2)CC1)Nc1ccc(F)c(Cl)c1,–,"inconclusive: 29.1 µM [inhibitor, single point]"
COc1ccc2nc(NC(=O)CN(c3ccc(C)cc3)S(=O)(=O)c3c(C)nn(C)c3C)sc2c1,–,"inconclusive: 20.6 µM [inhibitor, single point]"
CCCCNC(=O)c1cc2nc(-c3ccccc3)cc(C(F)(F)F)n2n1,–,"inconclusive: 13 µM [inhibitor, partial curve]"
C[C@@H]1CN([C@H](C)CO)C(=O)CCCn2nncc2CO[C@H]1CN(C)C(=O)c1ccccc1,inconclusive: -18.5% [inhibitor],–
O=C(Nc1ccccc1-c1ccccc1)c1ccc(NC(=O)c2ccco2)cc1,–,"inconclusive: 29.1 µM [inhibitor, single point]"
O=C(O)CCc1nn2c3ccccc3n(Cc3ccccc3F)c2nc1=O,–,"inconclusive: 25.9 µM [inhibitor, single point]"
O=C(N/N=C/c1ccc2c(c1)OCO2)c1cccnc1,inactive: -20.6%,–
COc1ccc(C(=O)N/N=C(\C)CC(=O)Nc2ccc3ccccc3c2)c(OC)c1,inactive: -16.8%,–
CC1Cc2ccccc2N1C(=S)Nc1cccc(S(=O)(=O)N(C)C)c1 (configuration not stated),–,"inconclusive: 18.4 µM [inhibitor, partial curve]"
CC(C)OCCCN1C(=O)c2[nH]nc(-c3ccccc3O)c2C1c1ccccc1F (configuration not stated),–,active: 13 µM
CC(NS(=O)(=O)c1ccccc1Cl)C1CC2CCC1C2 (configuration not stated),–,"inconclusive: 29.1 µM [inhibitor, single point]"
CCOc1ccccc1N1CC(c2nc3ccccc3n2CCCOc2ccc(OC)cc2)CC1=O (configuration not stated),inactive: 8.35%,–

SMILES,"activity change, negative = growth inhibition",Potency
O=C(NC1CC1)c1nc(Cn2ccc([N+](=O)[O-])n2)no1,inconclusive: -30.3% [inhibitor],–
COc1ccc(CNC(=O)c2sc3nc[nH]c(=O)c3c2C)cc1,inactive: -15.4%,–
Cc1noc(-c2ccccc2OCC(=O)Nc2ccccc2[N+](=O)[O-])n1,–,"inconclusive: 18.4 µM [inhibitor, single point]"
O=C(CN1CCN(C(C(=O)Nc2cc(C(F)(F)F)ccc2Cl)c2ccccc2)CC1)NC1CC1 (configuration not stated),–,"inconclusive: 25.9 µM [inhibitor, single point]"
COc1cccc(CNC(=O)c2ccc(-n3c(C)cc4c3CCCC4)cc2)c1,–,active: 16.4 µM
CCCN(CCC)C(=O)CC(c1ccccc1)c1cc(C)ccc1O (configuration not stated),–,"inconclusive: 23.1 µM [inhibitor, single point]"
Cc1cc(Oc2ccccc2)nc(NCc2ccccc2)n1,–,active: 20.6 µM
CCN(CC)c1ccc(NC(=O)COc2ccc(-n3cnnn3)cc2)cc1,–,"inconclusive: 18.4 µM [inhibitor, single point]"
CCn1c(=O)cc(SCC(=O)Nc2ccc(OC)c(OC)c2)c2ccccc21,–,active: 23.1 µM
CS(=O)(=O)Nc1ccc(-c2cncc3nccn23)cc1,–,"inconclusive: 29.1 µM [inhibitor, single point]"
CCN1CCSc2ccc(C(=O)NCc3cccc(Br)c3)cc21,–,"inconclusive: 29.1 µM [inhibitor, single point] and inconclusive: 25.9 µM [inhibitor, single point]"
CC[C@]12c3[nH]c4ccc(OC)cc4c3CCN1C(=O)C(CC(=O)NCCc1ccccn1)C[C@@H]2C(=O)N1CCN(C(=O)c2ccco2)CC1 (some centres not stated),inactive: -8.99%,–
C=C1CC2C3CCC4=CC(=O)C=C[C@]4(C)[C@@]3(F)[C@@H](O)C[C@]2(C)[C@@]1(O)C(=O)COC(C)=O (some centres not stated),inactive: -18.2%,–
O=S1(=O)N[C@@H](Cc2ccccc2)COc2cc(N3CCN(Cc4ccccc4F)CC3)ccc21,–,active: 20.6 µM
CS(=O)(=O)N(Cc1ccc(F)cc1)Cc1nc2ccccc2c(=O)[nH]1,inactive: 1.59%,–
CC(C)n1cc(NC(=O)COc2ccccc2Cl)cn1,inconclusive: -35.7% [inhibitor],–
Cc1cccc(NC(=S)NC2CCCC2)n1,–,"inconclusive: 23.1 µM [inhibitor, single point]"
Cc1ccc(-c2cn3nc(N4CCCC(C(=O)NCc5ccc(F)cc5)C4)sc3n2)cc1 (configuration not stated),–,"inconclusive: 20.6 µM [inhibitor, single point]"
COc1ccc(OC)c(NC(=O)C(=O)NNC(=O)C23CC4CC(CC(C4)C2)C3)c1,–,"inconclusive: 29.1 µM [inhibitor, single point]"
CC(C)N1CCC(N2CCN(CC#Cc3ccccc3)CC2CCO)CC1 (configuration not stated),–,"inconclusive: 9.2 µM [inhibitor, partial curve, poor fit]"
CC(C)(C)c1ccc(C(=O)N2CCCC(c3nc4c(nnn4Cc4cccc(F)c4)c(=O)[nH]3)C2)cc1 (configuration not stated),–,"inconclusive: 25.9 µM [inhibitor, single point]"
CC(=O)Nc1ccc(N=Cc2c(O)c(C(=O)Nc3ccccc3)cc3ccccc23)cc1,–,active: 16.4 µM
Oc1ccc(Cl)cc1CNCc1cccc2ccccc12,–,"inconclusive: 29.1 µM [inhibitor, single point]"
O=S(=O)(C=C(c1ccccc1)c1ccccc1)c1ccccc1,–,"inconclusive: 16.4 µM [inhibitor, partial curve]"

SMILES,"activity change, negative = growth inhibition",Potency
CC(C)C(Cl)=NOC(=O)Nc1ccc(S(N)(=O)=O)cc1,–,active: 2.59 µM
COc1ccc(NC(=O)C2(C)Cc3c(-c4ccc(NC(C)=O)cc4)ccnc3O2)cn1 (configuration not stated),–,"inconclusive: 18.4 µM [inhibitor, single point]"
O=C1CC(N(O)C2CC(=O)N(Cc3ccccc3)C2=O)C(=O)N1Cc1ccccc1 (configuration not stated),–,active: 10.3 µM
COc1ccc(-n2nc(C(=O)NCC(=O)N3CC(C)CC(C)C3)c3ccccc3c2=O)cc1 (configuration not stated),–,"inconclusive: 18.4 µM [inhibitor, single point]"
[O-]c1n[n+](-c2ccc(Cl)cc2)cc2ccccc12,–,"inconclusive: 18.4 µM [inhibitor, single point]"
O=C(O)c1ccccc1NC(=O)c1cc2ccccc2oc1=O,–,"inconclusive: 29.1 µM [inhibitor, single point]"
CCCC1CCC(=C(C#N)C(N)=O)CC1 (configuration not stated),inactive: 24.4%,–
O=C(NCc1ccccn1)c1ccc([N+](=O)[O-])cc1,inactive: -25.8%,–
Cn1nc(C(F)(F)F)c(C#N)c1N1CCN(c2ccc(F)cc2)CC1,–,active: 20.6 µM
O=c1c2ccccc2nc(-c2ccccc2)n1O,inactive: -2.1%,–
CC(C)N(CC(N)=O)c1ncnc2sc(-c3ccccc3)cc12,–,"inconclusive: 20.6 µM [inhibitor, partial curve]"
CS(=O)(=O)c1ccc(Cl)c(NC(=O)CN2CCN(S(=O)(=O)/C=C/c3ccccc3)CC2)c1,–,active: 3.26 µM
COc1cc(C(=O)Nc2nnc(S(=O)(=O)N3CCCCCC3)s2)cc(OC)c1OC,inactive: -3.45%,–
CCN(CC(=O)NCc1ccc(Cl)cc1)C(=O)c1sccc1C,inactive: 1.92%,–
Cc1c(C)c2c(OCC(=O)N3CCC(O)CC3)cc3c(c2oc1=O)CCC(C)(C)O3,–,"inconclusive: 29.1 µM [inhibitor, single point]"
C/C(=N\NC(N)=S)c1ccc2c(c1)OCCO2,–,"inconclusive: 3.66 µM [inhibitor, partial curve]"
CN(CC(=O)Nc1cccc(F)c1)C(=O)CCC1CCCCC1,–,"inconclusive: 14.6 µM [inhibitor, partial curve]"
Cc1cnc(NC(=O)Cc2ccccc2F)s1,–,active: 20.6 µM
Cc1nc2c(C)cccc2cc1C(=O)N/N=C/c1ccc(C(=O)O)cc1,–,"inconclusive: 20.6 µM [inhibitor, single point]"
S=C(Nc1ccccc1)Nc1nc2ccccc2n1CCOc1ccc(Br)cc1,–,"inconclusive: 29.1 µM [inhibitor, single point]"
Cc1ccc([C@@H]2CC(=O)[C@@H]3CN(S(=O)(=O)c4ccc(C)cc4)[C@H](c4ccc(Cl)cc4)C[C@@H]3N2S(=O)(=O)c2ccc(Cl)cc2)cc1,–,"inconclusive: 16.4 µM [inhibitor, single point]"
Cc1cc(C2C(C#N)=C(N)SC(N)=C2C#N)c(C)s1,–,"inconclusive: 16.4 µM [inhibitor, single point]"
c1ccc(CN2CCOCC2)cc1,inactive: -6.45%,–
COCC(=O)OCc1cc2cccc(C)c2[nH]c1=O,inconclusive: -32.8% [inhibitor],–
